Results published in PubChem BioAssay (NCATS).
The shares of active, inactive and inconclusive entries below differ from those in the screen. For part of these data: Where the call is inconclusive, the potency comes from a doubtful curve fit. Activity calls are given as the source filed them. Unless noted, calls come from the whole dose curve; as a rule, active = well fitted curve in the direction sought with a large enough effect; inconclusive = small, poorly fitted or top-dose-only effect, or another doubt; inactive = no such curve, though single readings can be large; an effect the other way counts as inactive or inconclusive.

Tests used:
[1] = Cell Viability - BJ (AID 421; calls by dose curve;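 note: potency is the fitted concentration of half-maximal effect; cells exposed to compound for 40 hours at 37 °C before readout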); conditions: BJ fibroblast viability, qHTS
Summary of the method: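 Cytotoxicity as drop in intracellular ATP (CellTiter-Glo, 20 min RT) after 40 hr compound exposure of BJ fibroblasts at 37 °C. Titrations scaled between DMSO and 100 uM tamoxifen, Hill-fitted for AC50.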

[2] = Cell Viability - Jurkat (AID 426;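 active = dose-dependent loss of cell ATP signal giving a full or clear fitted curve, ranked by lower potency value; inconclusive = weak partial curve or response only at the top dose; inactive = no loss of viability signal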; note: potency is the fitted concentration of half-maximal effect); conditions: qHTS
Summary of the method: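 Cytotoxicity was scored as loss of cellular ATP, measured by luciferase-based luminescence, in Jurkat clone E6-1 cells after 40 h compound treatment; tamoxifen and doxorubicin served as positive controls.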

[3] = Cell Viability - Hek293 (AID 427;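 active = compounds whose dose-response curve shows a full or clear partial loss of cell viability, called from curve shape rather than a numeric limit; inconclusive = weak partial curves or an effect only at the top dose; inactive = no dose-dependent loss of viability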;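 note: potency is the fitted concentration of half-maximal effect; cells exposed to compound for 40 hours at 37 °C before reading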); conditions: qHTS
Summary of the method: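 Luminescent ATP content (CellTiter-Glo, 20 min at room temperature) was measured after a 40 hr, 37 °C compound exposure of HEK293 cells. AC50 values came from Hill-equation fits of qHTS concentration-response data normalized to DMSO and 100 uM tamoxifen.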

[4] = Cell Viability - N2a (AID 540); conditions: N2a mouse neuroblastoma cell viability; activity change, negative = cytotoxicity: at 92.2 µM (top of the series); note: potency is the fitted concentration of half-maximal effect; nearly all actives have a fitted effect of over 45% in size
Summary of the method: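 In this qHTS cytotoxicity screen, ATP-dependent luciferase luminescence reports viable N2a cells after a 40 hr compound exposure in complete culture medium. Potencies are AC50 values from standard Hill equation fits.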

[5] = Cell Viability - NIH 3T3 (AID 541); conditions: NIH 3T3 cell viability, qHTS; activity change, negative = cytotoxicity: at 92.2 µM (top of the series); note: potency is the fitted concentration of half-maximal effect; nearly all actives have a fitted effect of over 25% in size
Summary of the method: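 In this cytotoxicity screen, acute toxicity is scored as an ATP drop measured by CellTiter-Glo in NIH 3T3 fibroblasts following a 40 hr, 37 °C incubation with compound.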

[6] = Cell Viability - HUV-EC-C (AID 542); note: potency is the fitted concentration of half-maximal effect; nearly all actives have a fitted effect of over 35% in size
Summary of the method: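 Concentration-dependent ATP loss in HUV-EC-C cells is the measure. Exposure lasts 40 hr at 37 °C; luminescence follows CellTiter-Glo addition, and Hill fits give AC50.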

[7] = Cell Viability - Renal Proximal Tubule (AID 545); conditions: renal proximal tubule cells viability, primary cells of rat origin; activity change, negative = cytotoxicity: at 91.7 µM (top of the series); note: nearly all actives have a fitted effect of over 40% in size
Summary of the method: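 Rat renal proximal tubule primary cells, 1000/well, exposed to compounds for 40 hr at 37 °C in complete medium; cellular ATP read by CellTiter-Glo luminescence. AC50 from concentration-response fitted with standard Hill equation.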

[8] = Cell Viability - Mesenchymal (AID 546); conditions: mesenchymal cells viability, qHTS; activity change, negative = cytotoxicity: at 91.7 µM (top of the series);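 note: potency is the fitted concentration of half-maximal effect; cells exposed to compound for 40 hours before reading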
Summary of the method: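 CellTiter-Glo luminescence (intracellular ATP, 20 min room temperature) after 40 hr compound exposure at 37 °C of 1000 glomerulus-derived human kidney mesenchymal cells/well; AC50 values obtained by fitting qHTS concentration-response data to the Hill equation.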

[9] = Cellular Toxicity (caspase-3) Jurkat (AID 655); conditions: Jurkat caspase-3 activation, luminescence; caspase-3 activation: at 92.2 µM (top of the series), DMSO = 0%, tamoxifen = 100%;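 note: cells exposed to compound for 16 h at 37 °C before reading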
Summary of the method: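 Jurkat cells (5000/well) in complete medium exposed 16 h at 37 C; caspase-3/7 activity read by Caspase-Glo luminescence after 20 min at room temperature. Normalized to DMSO and 100 uM tamoxifen; AC50 from Hill fits.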

[10] = Cellular Toxicity (caspase-3) NIH 3T3 (AID 666); conditions: NIH 3T3 caspase-3 activation, apoptosis/toxicity;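 note: potency is the fitted concentration of half-maximal effect; caspase signal read after 16 h compound exposure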
Summary of the method: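 Activity: caspase-3/7 induction, NIH 3T3 cells, 16 hr treatment at 37°C, luminescent Caspase-Glo detection; AC50 via Hill equation.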

[11] = MultiTox-Fluor Cytotoxicity Assay - LYMP1-001 - Live Cells (AID 947); note: potency is the fitted concentration of half-maximal effect
[12] = Cell Viability - LYMP1-002 - Assay at 16 hr (AID 948); note: potency is the fitted concentration of half-maximal effect
Summary of the method: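 LYMP1-002 human lymphoblastoid cells, 2500/well, were treated with compounds for 16 hr at 37 C in complete medium. Viability was read as intracellular ATP by CellTiter-Glo luminescence, and AC50 was derived from a Hill fit to concentration-response data.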

[13] = MultiTox-Fluor Cytotoxicity Assay - LYMP1-002 - Live Cells (AID 955);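 note: potency is the fitted concentration of half-maximal effect; cells exposed to compound for 16 hours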
Summary of the method: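 In this qHTS viability format, lymphoblastoid cells (LYMP1-002, human) received compound for 16 hr at 37 C. Fluorogenic GF-AFC cleavage by viable cells was detected at 405/510 nm after 1 h at room temperature.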

[14] = MultiTox-Fluor Cytotoxicity Assay - LYMP1-002 - Dead Cells (AID 960); conditions: LYMP1-002 lymphoblastoid cells, dead-cell protease fluorescence; cytotoxicity (dead cells): at 46.1 µM (top of the series); note: potency is the fitted concentration of half-maximal effect; nearly all actives have a fitted effect of over 60% in size
Summary of the method: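 Concentration-dependent increases in membrane-leaked protease activity are quantified in LYMP1-002 cells after 16 hr treatment; values are normalized against DMSO and tetraoctylammonium bromide (15 uM) controls and AC50 derived by Hill modeling.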

[15] = Cell Viability - LYMP2-005 (AID 967); note: potency is the fitted concentration of half-maximal effect
Summary of the method: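 Human lymphoblastoid LYMP2-005 cells, 2,500 per well in complete medium, rested 5 h at 37C then compound-treated 24 h at 37C. Intracellular ATP read by CellTiter-Glo luminescence after 30 min at room temperature; AC50 from Hill-equation fits of concentration-response data.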
Tags give direction and shape of the fitted curve.

CNc1ccc(O)cc1
inconclusive: Potency [1] 87.7 µM [single point] | Potency [6] 39.8 µM [falling, partial curve] | activity change, negative = cytotoxicity [7] -105% | caspase-3 activation [9] -11.2% | Potency [10] 31.6 µM [falling, single point] | Potency [12] 12.6 µM [cytotoxic, full curve] | Potency [14] 10 µM [cytotoxic, partial curve]
active: Potency [2] 2.14 µM | Potency [3] 40.8 µM | Potency [4] 31.6 µM | Potency [5] 25.1 µM | Potency [8] 31.6 µM | Potency [11] 31.6 µM | Potency [13] 12.6 µM | Potency [15] 5.01 µM
